This note sets out measurements from publication PMC4336329 (PLoS ONE, 2015).

The whole screen tested about 310,000 compounds, of which about 2,200 (0.71%) showed an effect of 50% or more. The effect is printed as a negative number. The list shows a part of the results.

The target of this test is human ether-à-go-go-related gene (hERG) potassium channel (human, UniProt Q12809). Description: primary screen, population patch clamp on CHO cells stably expressing hERG.
Chain of human ether-à-go-go-related gene (hERG) potassium channel (Q12809 whole entry, looked up): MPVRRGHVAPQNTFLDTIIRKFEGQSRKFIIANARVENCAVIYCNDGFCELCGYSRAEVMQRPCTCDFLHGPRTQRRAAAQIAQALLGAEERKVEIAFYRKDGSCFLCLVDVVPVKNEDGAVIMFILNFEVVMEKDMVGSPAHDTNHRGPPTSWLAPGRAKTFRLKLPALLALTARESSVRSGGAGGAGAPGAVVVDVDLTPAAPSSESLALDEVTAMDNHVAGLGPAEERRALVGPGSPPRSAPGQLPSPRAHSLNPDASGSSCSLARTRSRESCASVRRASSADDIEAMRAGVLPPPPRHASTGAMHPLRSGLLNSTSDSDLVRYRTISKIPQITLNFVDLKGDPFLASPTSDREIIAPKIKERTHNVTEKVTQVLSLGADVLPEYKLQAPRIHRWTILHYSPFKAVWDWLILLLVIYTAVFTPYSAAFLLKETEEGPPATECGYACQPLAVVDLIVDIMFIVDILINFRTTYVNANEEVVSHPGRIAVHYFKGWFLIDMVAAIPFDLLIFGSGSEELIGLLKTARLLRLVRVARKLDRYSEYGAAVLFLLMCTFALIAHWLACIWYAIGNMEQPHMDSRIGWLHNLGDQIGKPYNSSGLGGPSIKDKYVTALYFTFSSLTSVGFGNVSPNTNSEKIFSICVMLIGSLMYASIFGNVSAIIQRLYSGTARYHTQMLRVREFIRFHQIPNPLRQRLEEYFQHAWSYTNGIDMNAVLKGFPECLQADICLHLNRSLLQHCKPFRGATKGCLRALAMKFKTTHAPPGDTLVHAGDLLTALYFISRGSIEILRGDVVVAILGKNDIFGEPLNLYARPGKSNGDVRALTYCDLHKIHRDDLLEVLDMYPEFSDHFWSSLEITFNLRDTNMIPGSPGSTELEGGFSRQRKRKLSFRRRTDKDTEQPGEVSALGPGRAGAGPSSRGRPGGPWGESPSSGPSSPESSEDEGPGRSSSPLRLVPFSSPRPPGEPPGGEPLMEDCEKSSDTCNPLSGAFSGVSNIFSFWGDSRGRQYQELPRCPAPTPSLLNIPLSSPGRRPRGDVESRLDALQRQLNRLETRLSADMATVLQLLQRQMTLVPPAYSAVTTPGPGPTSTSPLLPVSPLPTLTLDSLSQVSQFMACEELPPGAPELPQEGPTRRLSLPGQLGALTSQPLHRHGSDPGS
For `Nc1ccccc1SC1CC(=O)N(Cc2ccccc2)C1=O` (stereo not drawn), the “hERG current change (%, negative = inhibition) at 1uM” value was 10.3%. Turning to `Cc1csc(SCCn2c(N3CCN(c4ccccc4)CC3)nc3c2c(=O)[nH]c(=O)n3C)n1`, the “hERG current change (%, negative = inhibition) at 1uM” value is on record as 12.5%. For `CN(C)CCNC(=O)c1cc(Br)ccc1Cl`, the “hERG current change (%, negative = inhibition) at 1uM” value is reported as 9.94%. With `Cc1ccc(NC(=O)CSCC(=O)Nc2ccccc2N2CCCCC2)cc1`, the “hERG current change (%, negative = inhibition) at 1uM” value is recorded as 1.36%. The value for `O=C(NCCCO)/C(=C\c1ccco1)NC(=O)c1ccc(Br)o1` was 3.05%; that for `COc1ccc(C(=O)c2oc3ccccc3c2N)cc1` was 14.3%. Take `O=C(CSc1nc2ccccc2o1)c1ccccc1`: the “hERG current change (%, negative = inhibition) at 1uM” value was 6.81%. With `CNC(=S)N(Cc1cc2cc(C)ccc2n2nnnc12)CC(C)(C)CN(C)C`, the “hERG current change (%, negative = inhibition) at 1uM” value is reported as 15.1%. The value for `O=C(NC1CCSC1=O)C1CCCCC1` (stereo not drawn) was 9.13%; that for `CNC(=O)N(O)C1N(NC(=O)Nc2ccccc2)C(=S)SC1(C)C` (stereo not drawn) was 12.4%. For `COC(=O)c1ccc(OCC(=O)NC(C)(C)C)cc1`, the “hERG current change (%, negative = inhibition) at 1uM” value is 5.73%. Consider `COc1cccc(/C=N/NC(=O)c2[nH]c(C)c(C(=O)N/N=C/c3cccc(OC)c3)c2C)c1`, for which the “hERG current change (%, negative = inhibition) at 1uM” value is 12.6%.

As for `CCOC(=O)N1CCC(N2C(=O)c3ccc(C(=O)Nc4ccc(F)cc4F)cc3C2=O)CC1`, the “hERG current change (%, negative = inhibition) at 1uM” value is reported as 7.13%. In the case of `COc1cc(C(C)=O)ccc1OC(C)C(=O)Nc1ccc(S(=O)(=O)N2CCCC2)cc1` (stereo not drawn), the “hERG current change (%, negative = inhibition) at 1uM” value is 10.2%. As to `COc1ccc(NC(=O)NCCC2=CCCCC2)cc1`, the “hERG current change (%, negative = inhibition) at 1uM” value turned out to be 8.08%. With `Cc1ccc(/C=N/NC(=O)Cc2c(F)cccc2Cl)s1`, the “hERG current change (%, negative = inhibition) at 1uM” value is given as 4.6%.

Turning to `Cc1ccc(C(=O)N/C(=C\c2cccs2)C(=O)NCC2CCCO2)cc1C` (stereo not drawn), the “hERG current change (%, negative = inhibition) at 1uM” value was determined as 7.99%.

For `Fc1cccc(NC(=S)NC2CCCCCCC2)c1`, the “hERG current change (%, negative = inhibition) at 1uM” value came to 18.9%. In the case of `Cc1cccc(-n2c(O)c(/C=N/N3CCOCC3)c(=O)[nH]c2=S)c1`, the “hERG current change (%, negative = inhibition) at 1uM” value is on record as -1.45%. For `O=C(O)/C=C\C(=O)Nc1ccc(N2CCN(c3cccc(Cl)c3)CC2)cc1`, the “hERG current change (%, negative = inhibition) at 1uM” value is on record as 9.88%. Take `COc1ccccc1Cn1c(=S)[nH]c2cc(C(=O)N3CCC(C(N)=O)CC3)ccc2c1=O`: the “hERG current change (%, negative = inhibition) at 1uM” value worked out at 17.1%.

Consider `Cc1cc(F)c(F)c(C(=O)N2CCN(C)CC2)c1Cl`, for which the “hERG current change (%, negative = inhibition) at 1uM” value was 17.8%. As to `CCCn1c(SCC(=O)Nc2ccccc2-c2ccccc2)nnc1-c1ccoc1C`, the “hERG current change (%, negative = inhibition) at 1uM” value is 5.18%.

Regarding `O=C(c1cnn(C(=O)c2ccccc2)c1)c1ccccc1O`, the “hERG current change (%, negative = inhibition) at 1uM” value is given as 9.27%. The value for `O=C(c1ccc(-c2ccc(Cl)cc2)o1)N1CCN(S(=O)(=O)c2cccs2)CC1` was 7.65%; that for `S=C(Nc1ccc(-c2nc3ccccc3[nH]2)cc1)Nc1cccnc1` was -17.2%; that for `O=C(Nc1ccon1)c1cccc(C(F)(F)F)c1` was 13%. As for `O=C(NCC(=O)N(c1ccccc1F)C(C(=O)NC1CCCC1)c1ccncc1)c1ccco1` (stereo not drawn), the figure is 9.08%. Turning to `O=C(NCc1ccccc1)c1onc(CSc2ccc(F)c(F)c2)c1C(=O)NCc1ccccc1`, the “hERG current change (%, negative = inhibition) at 1uM” value was 8.58%.

Take `CCOC(=O)C1CCN(Cc2ccc(OCc3ccccc3)cc2)CC1.O=C(O)C(=O)O`: the “hERG current change (%, negative = inhibition) at 1uM” value is listed as -24.2%. Turning to `Cc1ccc(NC(=O)C2=C(O)c3ccccc3N(C)S2(=O)=O)cc1`, the “hERG current change (%, negative = inhibition) at 1uM” value is recorded as 14.1%. The value for `Nc1nc(-c2ccc3c(c2)CCC(=O)N3)cs1` was 15.7%.

As to `CC1CCCC(NC(=O)C2CCN(S(=O)(=O)N3CCC4(CC3)OCCO4)CC2)C1C` (stereo not drawn), the “hERG current change (%, negative = inhibition) at 1uM” value turned out to be 1.82%. As for `COc1cc(CNC(C)C)ccc1OCC(=O)Nc1cccc2ccccc12`, the figure is 10.2%. `Cc1ccc(-c2nnc(Nc3ccc4c(c3)OCO4)c3ccccc23)cc1S(N)(=O)=O`: the “hERG current change (%, negative = inhibition) at 1uM” value is on record as 5.71%. As for `Cc1nnc(SCC(=O)NCCOc2ccc(Cl)cc2)n1-c1ccccc1`, the “hERG current change (%, negative = inhibition) at 1uM” value was -9.59%. The value for `CCN1C(=O)C2(/C(=C(\O)c3ccc4c(c3)OCCO4)C(=O)C(=O)N2CCCOC)c2ccccc21` (stereo not drawn) was 19.6%; that for `CCOc1ccc(CCNC(=O)COC(=O)c2cc(=O)[nH]c3ccccc23)cc1OCC` was 21.2%. In the case of `COc1ccc(Nc2nnc(SCC(=O)c3cc4ccccc4o3)s2)cc1`, the “hERG current change (%, negative = inhibition) at 1uM” value is reported as 10.9%. With `Cc1nc(CNS(=O)(=O)c2ccc3c(c2)CCCC3)cs1`, the “hERG current change (%, negative = inhibition) at 1uM” value was found to be 11.1%. The value for `Cc1ccc2oc(=O)n(CC(=O)O)c2c1` was 16.2%.

For the compound `O=C(O)C1Nc2c(O)cccc2C2C=CCC12` (stereo not drawn), the “hERG current change (%, negative = inhibition) at 1uM” value was found to be 9.09%. With `CCCc1cc(=O)oc2cc(OCC(=O)NCCCn3ccnc3)ccc12`, the “hERG current change (%, negative = inhibition) at 1uM” value is reported as -9.74%.

`CCS(=O)(=O)NCc1nnc2n1-c1ccc(Cl)cc1C(c1ccccc1)=NC2`: the “hERG current change (%, negative = inhibition) at 1uM” value is recorded as 9.43%.

For the compound `CCCn1nc(C(=O)Nc2ccc3c(c2)OCCO3)c2ccccc2c1=O`, the “hERG current change (%, negative = inhibition) at 1uM” value is given as 8.24%. For `CCOC(=O)c1cc(C)[nH]c1C`, the “hERG current change (%, negative = inhibition) at 1uM” value was 6.28%. Consider `CS(=O)c1ccccc1COC(=O)Nc1ccc(Cl)cc1` (stereo not drawn), for which the “hERG current change (%, negative = inhibition) at 1uM” value was -3.41%. Take `COc1ccc(/C=N/NC(=O)c2cc(C34CC5CC(CC(C5)C3)C4)[nH]n2)cc1O`: the “hERG current change (%, negative = inhibition) at 1uM” value is listed as 4.54%.

With `COc1cccc(NC(=O)c2ccc(OC(F)(F)F)cc2)c1`, the “hERG current change (%, negative = inhibition) at 1uM” value was found to be 5.93%.

Regarding `CCOc1ccc(C2C=C(c3ccccc3)Nc3nnnn32)cc1` (stereo not drawn), the “hERG current change (%, negative = inhibition) at 1uM” value is 10.4%. Consider `Cc1ccc2[nH]cc(CCNC(=O)Nc3ccccc3)c2c1`, for which the “hERG current change (%, negative = inhibition) at 1uM” value amounted to 1.54%. As to `C=CCOC(=O)C1=C(C)NC(=O)NC1c1ccc(N(C)C)cc1` (stereo not drawn), the “hERG current change (%, negative = inhibition) at 1uM” value was 7.84%. As for `CC(C)CN(C(=O)CSc1nnc(-c2ccco2)o1)c1c(N)n(Cc2ccccc2)c(=O)[nH]c1=O`, the figure is 19.2%. As for `CC1=Nc2ccccc2/C1=C/c1nc(-c2ccc(C)s2)oc1O`, the figure is 13.8%; as for `CCOc1ccc2nc(Cl)c(CN(C(=O)c3cnccn3)C3CCCC3)cc2c1`, 12.1%. Turning to `Fc1ccccc1CN1CCN(c2ncccn2)CC1`, the “hERG current change (%, negative = inhibition) at 1uM” value is given as 10.5%. Regarding `NC(=S)NNc1ccnc2cc(Cl)ccc12`, the “hERG current change (%, negative = inhibition) at 1uM” value came to 3.17%.
